Experimental findings from the RNAGym collection of RNA variant scans (doi:10.7554/elife.90254) are described below.

The labels stand for the following.
B1: LINE1-full (parent)
chain: UACGUAGGUGGUUUUCCCCUGAUAGUGCUAAGGGGGCCUGGAAGUUUGGACUGGGCAGAGCUCAACACAGCGUGGCAAAGUGGCUGUGGCUAGACUGCCUCUCUGGAUUCCUCGUCACUCAGCAGGGCAUCUCUGAGAGAAAUGCC

Read counts are not given, so values of variants with three or more changes are uncertain.

Variants of B1 are the subject of the data set. Briefly: self-cleavage, relative activity (ratio to wild type); higher = more cleavage; in vitro, sequencing; the parent is a self-cleaving ribozyme.
As for UACGUAGGUGGUUUUCCCCUGAUAGUGCUAAGGGGGCCAGGAAGUUUGGACUGGGCAGAGCUCAACACAGCGUGGCGAAGUGGCUGUGUCUAGACUGCCUCUCUGGAUUCCUCGUCACUCAGCAGGGCAUCUCUGAGAGAAAUGCC, the self-cleavage was 0.16.

In the case of UACGUGGGUGGUUUUCACCUGAUAGUGCUAAGGGGGCCUGGAAGUUUGGACUGGGCAGAGCUCAACACAGCGUGGCAAAGUGGCUGUGGCUAGACAGCCUCUCUGGAUUCCUCGUCACUCAGCAGGGCAUCUCUGAGAAAAAUGCC, the self-cleavage was 0.11.

For UACGUAGGUGGUUUUCCCCUGAUAGUGCUAAGGGGGCCUGGAAGUUUGGACUGGGCAGAGCUCAACACAGCGUGGCAAAGGGGCUGUGGCUAAACUGCCUCUCUGGAUUCCUCGUCACUCUGCAGGGCAUCUCUGAGAGAAAUGCC, the self-cleavage turned out to be 0.05.

Consider UACGUAGGUGGUUUUCCCCUGAUAGUGCUAAGGGGGCCUGGAAGCUUGGACUGGGCAGAGCUCAACACAGCGUGGCAAAGUGGCUGUGGCUAGACUGCCUCUCUGGAUUCCCCGUCACUCAGCAGGGCAUCUCUGAGGGAAAUGCC, for which the self-cleavage amounted to 1.08.

Consider UACGUAGGUGGUUCUCCCCUGAUAGUGCUAAGGGGGCCUGGAAGUUUGGACUGGGCAGAGCUCAACACAGCGUGGCAAGGUGGCUGUGGCUAGACUGCCCCUCUGGAUUCCUCGUCACUCAGCAGGGCAUCUCUGAGAGAAAUGCC, for which the self-cleavage was found to be 2.3.

UACGUAGGUGGUUUUCCCCUGAUAGUGCUAAGGGGGCCUGGAAGUUUGGACUGGGCAGAGCUCAACACAGCGUGGCAGAGAGGCUGUGGCUAGACUGCCUCUCUGGAUACCUCGUCACUCAGCAGGGCAUCUCUGAGAGAAAUGCC: the self-cleavage is 0.14.

In the case of UACGUAGGCGGUUUUCCCCUGAUAGUGCUAAGGGGGCCUGGAAGUUUGGACUGGGCAGAGCUCAACACAGUGUGGCAAAGUGGCUGUGGCUGGACUGCCUCUCUGGAUUCCUCGUCACUCAGCAGGGCAUCUCUGAGAGAGAUGCC, the self-cleavage is 0.13.

Regarding UACGUAGGUGGUUUUCCCCAGAUAGUGCUAAGGGGGCCUGGAUGUUUGGACUGGGCAGAGCUCAACACAGCGUGGCAAAGUGGCUGUGGCUAGACUGCCCCUCUGGAUUCCUCGUCACUCAGCAGGGCAUCUCUGAGAGAAAUGCC, the self-cleavage is 0.17.

Turning to UACGUAGGUGGUUUUCCCCUGAUAGUGCUAAGGGGGCCUGGAAGUUUGGACUGGGCAGUGCUCAACACAGCGAGGCAAAGUGGCUGUGGCUAGACUGCCUCACUGGAUUCCUCGUCACUCAGCAGGGCAUCUCUGAGAGAAAUGCC, the self-cleavage stood at 0.97.

As to UACGUAGGUGGUUUUCCCCUAAUAGUGCUAAGGGGGCCUGGAAGUUUGGACUGGGCAGAGCUCAACACAGCGUGGCAAAGUGGCUGUGGCUAGACUGCCUCUCCGGAUUCCUCGUCACUCAGCAGGGCAUCUCUGAGAGAGAUGCC, the self-cleavage is 1.23.

In the case of UACGUAGGUGGUUUUCCCCUGAUAGUGCUAAGGGGGCCCGAAAGUUUGGACUGGGCAGAGCUCAACACUGCGUGGCAAAGUGGCUGUGGCUAGACUGCCUCUCUGGAUUCCUCGUCACUCAGCAGGGCAUCUCUGAGAGAAAUGCC, the self-cleavage was 0.07.

With UACGUAGGUGGUUUUCCCCUGAUAGUGCUAAGGGGGCCUGGAAGUUUGGACUGGGCUGAGCUCAACACAGCGUGGCAAAGUGGCUGUGGCUAGACUGCCUCUCAGGAUUCCUCGUCACUCAGCAGGGCAUCACAGAGAGAGAUGCC, the self-cleavage stood at 0.04.

As for UACGUAGGUGGUUUUCCCCUGAUAGUGCUAAGGGGGCCUGGAAGUUUGGACUGGGCAGAGCCCAACACAGCGUGGUAAAGUGGCUGUGGCUGGACUGCCUCUCUGGAUUCCUCGUCACUCAGCGGGGCAUCUCUGAGAGAAAUGCC, the self-cleavage was found to be 0.

With UACGUAGGUGGUUUUCCCCCGAUAGUGCUAAGGGGGCCUGGAAGUAUGGACUGGGCAGAGCUCAACACAGCGUAGCAAAGUGGCUGUGGCUAGACUGCCUCUCUGGAUUCCUCGUCACACAGCAGGGCAUCUCUGAGAGAAAUGCC, the self-cleavage worked out at 0.75.

Regarding CACGUGGGUGGUUUUCCCCUGAUAGUGCUAAGGAGGCCUGGAAGUUUGGGCUGGGCAGAGCUCAACACAGCGUGGCGAAGUGGCUGUGGCUAGACUGCCUCUCUGGAUUCCUCGUCACUCAGCAGGGCAUCUCUGAGAGAAAUGCC, the self-cleavage was determined as 1.2.

Take UACGUAGGUGGUUUUCCCCUGAUAGUGCUAAGGGGGCCUGGAAGUUUGGACUGGGCUGAGCUCAACACAGCGUGGCAAAGUGGCUGUGGCUAGGCUGCCUCUCUGGAUUCCUCGUCACUCAGCAGGGCAUCUCUGAGAGAAGUGCC: the self-cleavage is 0.45.

Regarding UACGUAGGUGGUUUUCCCCUGAUAGUGCUAAGGGGGCCUGGAAGUUUGGACUGGGCAGAGCUCAACACAGCGUGGCAAAGUGGCCGUGGCUAGGCUGCCUCUCUGGAUUCCUCGUCACUCAGCAGGGCAUCACUGAGAGAAAUGCC, the self-cleavage turned out to be 0.

As for UACGUAGGUGGUUUUCCCCUGAUAGUGCUAAGGGGGCCUGGAAGUUUGGGCUGGGCAGGGCUCAACACAGCGUGGCAAAGUGGCUGUGGCUAGACUGCCUCUCUGGAUUCCUCGUCACUCAGCAGGGCAUCUCUGAGGGAAAUGCC, the self-cleavage amounted to 0.

UACGUAGGUGGUUUUCCCCUGAUAGUGCUAAGGGGGCCUGGAAGUUUGGACUGGGCAGAGCUCAACACAGCGUGGCAAAGUGGCUGUGGCUAGACCGCCUCUCUGGAUUCCUCGACUCUCAGCAGGGCAUCUCUGAGAGAAAUGCC: the self-cleavage was 0.09.

On to UACGUAGGUGGUUUUCCCCUGAUAGUGCUAAAGGGGCCUGGAAGUUUGGACUGGGCAGAGCUCAACACAGCGUGGCGAGGUGGCUGUGGCUAGACUGCCUCUCUGGAUUCCUCGUCACUCAGCAGGGCAUCUCUGAGAGAAAUGCC, for which the self-cleavage came to 0.71.
